Measurements taken from paper PMC12136788.
This is one part of the list.

T1: UNK ZnF1-6 (called full-length) (human, UniProt Q9C0B0 30-357)
T1 sequence: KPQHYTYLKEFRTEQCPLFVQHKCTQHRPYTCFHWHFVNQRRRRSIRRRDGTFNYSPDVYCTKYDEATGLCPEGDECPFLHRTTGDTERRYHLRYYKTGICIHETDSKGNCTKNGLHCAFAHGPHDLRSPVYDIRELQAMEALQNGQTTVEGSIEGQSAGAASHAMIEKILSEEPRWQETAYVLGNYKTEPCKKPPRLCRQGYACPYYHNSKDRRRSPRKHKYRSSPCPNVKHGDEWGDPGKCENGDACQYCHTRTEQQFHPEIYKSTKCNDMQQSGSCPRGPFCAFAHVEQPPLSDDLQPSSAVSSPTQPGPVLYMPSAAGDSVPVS

B1: ENSG00000071537:stop:overlap|stop_codon|ENSG00000071537|stop_codon|NA|stop_codon (ssRNA)
RNA: GGGAGUUCUACAGUCCGACGAUCAUACAUUUGGAGCUCUUGGGGGCAAUCUAAUAGCCCACAUGGUUUUGGUAAGUAGACUUUAGUGGAAGGCUAAUAAUAUUAACAUCAGAAGAAUUUGUGGUUUAUAGCGGCCACAACUUUCAACAGAGGAUUGAGCAUCA
B2: chr19:12791443:12791544:+|5pUTR|ENSG00000171223|unk|FALSE|unique (ssRNA)
RNA: GGGAGUUCUACAGUCCGACGAUCGGGGGGCGCGGGGGCCCGGCUCCGGCGACGGCCAAUCGGAGCGCACUUCCGUGGCUGACUAGCGCGGUAUAAAGGCGUGUGGCUCAGGCUGAGCGGCUGGGACCUUGAGAGCGGCCAGGCCAACAGAGGAUUGAGCAUCA
B3: chr12:12643182:12643283:+|3pUTR|ENSG00000111269|unk|total|mutant (ssRNA)
RNA: GGGAGUUCUACAGUCCGACGAUCCUGGAGUUGUGCACAGCACCGCAGCCCGUGGGCCUGGCUGGGGGUGCAGAAGGGCAGGGCCGUUCUUUCCAUUUCCCCUUGCAGCUACACUUACUUUCUCCCUGACUACCAAAUGGAGUGCAACAGAGGAUUGAGCAUCA
B4: chr6:116593178:116593279:+|3pUTR|ENSG00000111832|unk|FALSE|unique (ssRNA)
RNA: GGGAGUUCUACAGUCCGACGAUCUAUGAUUUUCCUUUCUUUUUUUCUAAGAAAAAAUUAUUUUCAGGAGAAUAUUCUUCUGAUAGCUUUCAUCAUUGAACUUAAUAAACUGACCUUAAAAUUUCAAAUAUAAAAUGUUCAAGGCAACAGAGGAUUGAGCAUCA
B5: chr11:108106880:108106981:+|3pUTR|ENSG00000166266|msi1|FALSE|unique (ssRNA)
RNA: GGGAGUUCUACAGUCCGACGAUCUUAGUGGUAUGGCAAUAAGACACUUCAGAGGCUAUCUUAACCUCUGAAUACCCAUCUUCUAGUUUAAAGACAGAGACAUCCCAUCUGGAAAAUGUUAACUUGUGUUGCCAUCUCGUUGCCCAACAGAGGAUUGAGCAUCA
B6: chr7:130166276:130166377:-|3pUTR|ENSG00000146842|msi1|FALSE|unique (ssRNA)
RNA: GGGAGUUCUACAGUCCGACGAUCUCUCUGAGCCACUGACUCUUCUGAAAUAAAAUACACAUGGGUGUAUGUUACAGACUCUUUAGAUUUAACAGAAAAUGUAGCUGUUAUGAAAUGUAAUUGUAAAAAUAUGUCCCGUAUCUUCAACAGAGGAUUGAGCAUCA
B7: ENSG00000176396:stop:overlap|stop_codon|ENSG00000176396|stop_codon|NA|stop_codon (ssRNA)
RNA: GGGAGUUCUACAGUCCGACGAUCCUGAAGUUAUCAACCCUCUGAUAGAAGAACUUGGUUGCGAUAAGUUUAUCAAUAGAGAAUAGUUAUGUGGUGACACUACUUCAAGAGAACCUCUGCAUUCCAGUCAUACCAAUCCUGCAACAACAGAGGAUUGAGCAUCA
B8: chr3:138622260:138622368:+|CDS|ENSG00000158234|unk|FALSE|unique (ssRNA)
RNA: GGGAGUUCUACAGUCCGACGAUCAUUAGUGGGCAAAGAAACAUUCUAUGUUGGAGCUGCAAAGACAAAAGCGACCAUAAAUAUAGACGCUAUCAGUGGUUUUGCUUAUGAAUAUACUCUGGAAAUUAAUGGGAAAAGUCUCAACAACAGAGGAUUGAGCAUCA
B9: chr1:151291320:151291421:+|3pUTR|ENSG00000143373|unk|FALSE|unique (ssRNA)
RNA: GGGAGUUCUACAGUCCGACGAUCAAUAUUUUGUUAAUUCCUGUCUCUCCAACCUGAAGAAGAAGAGCAUUUGAGGAUUAUUCUAGUUAUUUGCAACCUCCCUUUGGGUUUGGCCCUGGAGUCCUAGUAGAGUGGACCCUCCAUCAACAGAGGAUUGAGCAUCA
B10: chr5:91374913:91375023:-|CDS|ENSG00000113369|unk|FALSE|bound_elsewhere (ssRNA)
RNA: GGGAGUUCUACAGUCCGACGAUCGAGACGUGGAAUGGCAAGUUGCUGAAAAUUCCACCAGUUUCUCCCUCUAUCCUCGACUGUAGUAUAAUCCGCGUGGAAUAUUCACUAAUGGUAUGUACACAUUUAAGAGGUUUUUUCCUUCAACAGAGGAUUGAGCAUCA
B11: chr14:92131016:92131127:+|CDS|ENSG00000165934|unk|FALSE|bound_elsewhere (ssRNA)
RNA: GGGAGUUCUACAGUCCGACGAUCACCCUUUCUGGGGUCCAAGAAGAAUCUGCCCUUUGCUAUCUUCUCCAAGUUGAUGAGUUUAGAUUUUUAUUGGACUGUGGCUGGGAUGAGCACUUUUCUAUGGAUAUUAUUGAUUCCCUGCAACAGAGGAUUGAGCAUCA
B12: chr15:40779088:40779310:-|CDS|ENSG00000104129|control|control|control (ssRNA)
RNA: GGGAGUUCUACAGUCCGACGAUCGAGAGGACCCAGAAACUUGAUGAGAAAAGGAAGAAAGUGAAGCUUGGUAGGUGCCAUCAUAGUGCUCGGUGGCCUGUGGUUUCCUGUGGUCAUUUUCAUUCAUCUCCCUCACCUGAAGCUCAACAGAGGAUUGAGCAUCA
B13: chr1:55154109:55154210:-|CDS|ENSG00000162402|msi1|FALSE|unique (ssRNA)
RNA: GGGAGUUCUACAGUCCGACGAUCCCUUAGUGAUGCAUAUGCAGUGAAAGAAGCAAUCAAGAGGAGCUACAUCAUCAAGUGCAUAGAAGAUAUUAAGAGGGUUGGUUUCAGCUUUUAUCUGAUUUUGUUGUUAGAGCAACAGUACAACAGAGGAUUGAGCAUCA
B14: chr12:3284911:3285012:+|3pUTR|ENSG00000011105|msi1|total|mutant (ssRNA)
RNA: GGGAGUUCUACAGUCCGACGAUCGGAGGACAGAACCGUUGGCAUUAUCAGGAUUCGUGUUUUGUGGGGGUGGGAGUGGAGAGCCGGGUGGUCUUGUGAGUUGUGCAGGGUGAAGACCGCUUCCCUGAGACAGGGGCAGUGGUGCAACAGAGGAUUGAGCAUCA

The binders below were run against T1, UNK ZnF1-6 (called full-length) (assay: nsRBNS (natural sequence RNA bind-n-seq); RBNS binding buffer (assumed for nsRBNS): 25 mM Tris pH 7.5, 150 mM KCl, 3 mM MgCl2, 0.01% Triton X-100, 500 ug/ml BSA, 20 U/ml SUPERase-In, 4 C; UNK is unkempt and MSI1 is Musashi-1; names of the RNAs are library labels; protein concentration not given here; high values mean tight binding).
With B1 the binding signal was 0.418 enrichment R.
B2 was tested, and the binding signal was 1.33 enrichment R.
With B3 the binding signal was 0.949 enrichment R.
B4 gave a binding signal of 1.13 enrichment R.
Work on B5 yielded a binding signal of 0.34 enrichment R.
For B6, the binding signal was 0.933 enrichment R.
With B7 the binding signal was 0.882 enrichment R.
With B8 the binding signal was 0.308 enrichment R.
With B9 the binding signal was 0.887 enrichment R.
B10 was tested, and the binding signal was 0.305 enrichment R.
Binder B11 has a binding signal of 0.374 enrichment R.
In the case of B12, the binding signal is reported as 0.783 enrichment R.
B13 was tested, and the binding signal was 0.456 enrichment R.
Work on B14 yielded a binding signal of 1.21 enrichment R.
